In all, about 110,000 compounds were measured (“z-score”: median about -0.1, highest 2% from about 2 on). The list shows a part of the results.

This is an account of results in PubChem BioAssay AID488969 (Vanderbilt High Throughput Screening Facility, 2010).

In the assay the target is Metabotropic glutamate receptor 8 (Rattus norvegicus) (UniProt P70579). Description: mGluR8 Gi/Go-coupled signaling modulation – cell-based, rat, thallium flux, HTS, primary screen (AID 488969). The settings on record: HEK293 rat mGluR8, GIRK (G protein-gated inwardly rectifying potassium channel) thallium flux, FluoZin2; at 10 µM; stronger effect = higher value; submaximal glutamate (EC20) added with thallium.
Chain of UniProt P70579 (P70579 whole entry, looked up): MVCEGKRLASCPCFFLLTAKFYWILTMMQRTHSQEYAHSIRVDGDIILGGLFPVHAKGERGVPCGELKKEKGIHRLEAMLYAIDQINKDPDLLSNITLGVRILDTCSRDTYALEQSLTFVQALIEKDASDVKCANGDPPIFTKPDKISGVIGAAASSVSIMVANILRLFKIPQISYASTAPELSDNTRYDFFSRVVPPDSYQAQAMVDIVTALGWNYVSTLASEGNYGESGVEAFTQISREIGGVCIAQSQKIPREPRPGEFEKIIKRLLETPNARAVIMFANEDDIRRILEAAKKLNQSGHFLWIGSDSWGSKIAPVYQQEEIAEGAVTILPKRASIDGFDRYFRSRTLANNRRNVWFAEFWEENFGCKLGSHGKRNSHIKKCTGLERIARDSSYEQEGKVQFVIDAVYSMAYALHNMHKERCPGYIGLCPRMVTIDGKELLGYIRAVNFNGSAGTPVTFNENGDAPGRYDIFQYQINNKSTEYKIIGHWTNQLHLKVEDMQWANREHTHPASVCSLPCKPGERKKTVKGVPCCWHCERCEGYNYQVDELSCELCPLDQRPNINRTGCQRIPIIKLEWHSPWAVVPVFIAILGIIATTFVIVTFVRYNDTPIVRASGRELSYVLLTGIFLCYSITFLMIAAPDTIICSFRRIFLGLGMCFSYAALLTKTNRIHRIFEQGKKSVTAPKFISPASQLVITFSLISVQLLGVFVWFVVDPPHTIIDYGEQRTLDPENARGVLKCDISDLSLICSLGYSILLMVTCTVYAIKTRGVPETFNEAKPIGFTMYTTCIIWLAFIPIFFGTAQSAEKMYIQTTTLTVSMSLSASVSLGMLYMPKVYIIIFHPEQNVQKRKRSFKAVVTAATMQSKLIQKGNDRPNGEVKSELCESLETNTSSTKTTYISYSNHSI
Take `N#Cc1cn(Cc2ccccc2)c2ccccc12`: the z-score came out at 0.308.
The value for `Cc1cccc(C)c1NC(=O)COC(=O)CCc1ccc(S(=O)(=O)N2CCCCC2)cc1` was -0.423; that for `O=C(O)c1cc(-c2ccco2)[nH]n1` was 0.209; that for `CNC(=O)C1CCN(C(=O)c2ccc(-c3ccccc3)cc2)CC1` was 0.628.
The value for `CCCN(CCC)C(=O)Cn1c(=O)n(CCCCCC(=O)Nc2ccccc2)c(=O)c2sccc21` was 0.509.
The value for `CC(C)CCNC(=O)COc1ccc2c(c1)C(=O)CC(C)(C)O2` was -0.219.
`CCOC(=O)CCCNC(=O)CN1C(=O)NC(CCc2ccccc2)C1=O` (stereo unspecified) returned a z-score of -0.365.
The value for `O=c1oc2ccccc2n1CSc1nc2ccccc2s1` was -0.145.
The value for `COC(CNC(=O)c1cccc2c1C(=O)N(Cc1cccnc1)C2)OC` was 0.0156; that for `CC(C)c1nccn1S(=O)(=O)c1cc([N+](=O)[O-])ccc1Cl` was -0.182.
In the case of `Cc1cccc(NC(=O)CSc2nnc(-c3ccccc3)n2N)c1`, the z-score is -0.339.
The value for `CCc1ccc(NS(=O)(=O)c2ccc3[nH]cc(C(=O)N4CCc5ccccc54)c(=O)c3c2)cc1` was -0.329; that for `Cc1csc2ncc(C(=O)NCc3ccco3)c(=O)n12` was -0.321.
The value for `CC1(C)CC(O)(CCNCc2ccc3c(c2)OCO3)CCO1` (stereo unspecified) was 0.411; that for `O=C(NC(Cc1ccc2c(c1)OCO2)C(=O)NC(Cc1ccccc1)C(=O)O)c1ccccc1` (stereo unspecified) was 0.158; that for `O=C(OCc1nnc(-c2ccccc2)o1)c1cn(-c2ccccc2)nc1-c1ccccc1` was 0.118.
The value for `COc1ccc(S(=O)(=O)N2CCC(C)CC2)cc1Br` was 0.263; that for `CCOc1cc(C2CC(=O)NC(SCC)=C2C#N)ccc1O` (stereo unspecified) was -0.154.
`CC(=O)c1cnc(Nc2nc(C)c3cc(C)c(C)cc3n2)nc1C` gave a z-score of -0.0182.
`O=C(NC1CCCCCC1)c1c2c(nc3ccccc13)CCN(Cc1ccccc1)C2` came in with a z-score of 0.078.
The value for `O=[N+]([O-])c1ccc(N2CCC(O)CC2)nc1` was 0.0767; that for `Cc1nc(NC2CCCC2)sc1C(=O)N(C)C` was -0.165.
The value for `Cc1ccc2nc(NCc3ccccc3)[nH]c2c1` was 0.56.
The value for `Cc1ccc(S(=O)(=O)NC(CC(=O)n2nc(C)cc2C)c2ccccc2)cc1` (stereo unspecified) was -0.3; that for `Cc1ccc(S(=O)(=O)N(C)c2ccc(C(=O)N3CCCCC3)cc2)cc1` was 1.91; that for `O=C(O)CCC(=O)NNC(=O)c1cccc(Br)c1` was -0.13.
Regarding `Cc1cc(C)n(-c2nnc(C)n2NS(C)(=O)=O)n1`, the z-score is 0.602.
The value for `COc1ccc(NC(=O)C2CCCN(S(=O)(=O)c3cnc[nH]3)C2)cc1` (stereo unspecified) was 0.631; that for `CCNC(=O)N1CCOCC1` was 0.19.
The value for `O=C(N/N=C/c1ccc2c(c1)OCO2)/C(=C/c1ccc2c(c1)OCO2)NC(=O)c1ccccc1` was -0.321.
The value for `CC(C)C(=O)N(c1cc2sc(=O)oc2c2ccccc12)S(=O)(=O)c1cccs1` was -0.122; that for `Cc1c(NC(=O)N(C)C)c(=O)n(-c2ccccc2)n1C` was -0.0915.
In the case of `Cn1cc(S(=O)(=O)N2CCN(C(=O)c3ccco3)CC2)c(=O)n(C)c1=O`, the z-score was -0.13.
The value for `CCC(=O)c1cc2c(cc1NC(=O)c1cccs1)OCCO2` was 0.603; that for `N#Cc1ccccc1Sc1ccccc1C(=O)OCC(=O)NC1CCS(=O)(=O)C1` (stereo unspecified) was -0.281.
In the case of `CCn1c(N2CCN(S(=O)(=O)c3ccccc3C(F)(F)F)CC2)nc2ccccc21`, the z-score was -0.867.
Compound `O=C(Nc1ccc(Cl)c(Cl)c1)Nc1nnc(-c2ccncc2)s1` registered a z-score of 0.017.
The value for `Cc1cc(C=C2C(=O)c3ccccc3C2=O)c(C)n1C` was -0.00835; that for `CN1C(=O)C(O)(CC(=O)c2cccnc2)c2ccccc21` (stereo unspecified) was 0.502; that for `S=C(NC1CCCCC1)N1CCc2ccccc2C1` was -0.267.
The value for `Nc1nnc(CC(=O)N/N=C/c2cccc([N+](=O)[O-])c2)s1` was 0.264; that for `COc1ccc(-c2cc(C#N)nc(N3CCN(c4ccccc4)CC3)n2)cc1` was -0.103; that for `CCOC(=O)CSc1cc(C(F)(F)F)nc(-c2ccccn2)n1` was -0.152.
The value for `COc1cccc(NC(=O)CN2CCN(c3ccccc3F)CC2)c1` was -0.247; that for `Cc1nnc(-c2ccccc2)c[n+]1[O-]` was 0.0799; that for `Cc1ccc(S(=O)(=O)c2cccc(S(=O)(=O)N3CCOCC3)c2)cc1S(=O)(=O)N1CCOCC1` was -0.234.
In turn, `O=C(O)c1ccccc1C(=O)Nc1n[nH]c(=S)s1` registered a z-score of -0.153.
The value for `CCCS(=O)(=O)N1CCC(C(=O)NCCCOC(C)C)CC1` was -0.0385; that for `CC(C)n1nnnc1SCC(=O)NCc1cccs1` was -0.133; that for `COc1ccc(N2C(=O)C3CCCN3C2c2cc(OC)c(OC)c(OC)c2)cc1` (stereo unspecified) was 0.741.
On to `CC1CCN(CC(=O)n2c3c(c4ccccc42)CCCC3)CC1`, for which the z-score came out at 0.363.
The value for `CCCCC(=O)Nc1nc(C)c(-c2csc(Nc3cc(OC)ccc3OC)n2)s1` was -0.128; that for `O=C(NCc1ccco1)c1cc(C(=O)C2CC2)c[nH]1` was 0.215; that for `CCNc1ccc(C(=O)Nc2ccc3nc(C)sc3c2)cc1[N+](=O)[O-]` was -0.315.
The value for `C1CN(c2nc3nonc3n3nnnc23)CCO1` was -0.322; that for `COc1cccc(C(=O)NC2CCN(C(=O)N3CCCCC3)CC2)c1` was -0.366.
